Over roughly 33,000 sequences, “E-score (-0.5 to 0.5)” has its median near -0.01; the highest 2% begin near 0.26. The list shows a part of the results.

In this experiment the target is Ste12 (UniProt P13574). Kind of experiment: PBM E-score (8-mer binding enrichment) (E-score (-0.5 to 0.5)); higher = stronger / more preferred TF binding; most listed sequences are background and not binding sites. Conditions: protein concentration: 200 nM; construct: GST-DNA-binding domain. The gist of the method: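 For each ungapped eight-base word taken together with its reverse complement, the Universal PBM Analysis Suite assigned an E-score. Binding data came from GST-tagged yeast transcription factors, applied at about 100-200 nM, on universal all-10-mer Agilent arrays made double-stranded by primer extension. Fluorescent anti-GST marked bound protein, and scans were normalised with masliner.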
For CGGGGAAA, the “PBM E-score” value is 0.272. To TGCCATAA belongs -0.045; to GAAGTAAC, 0.227; to CACTTACC, 0.151. Regarding AGTAGAAA, the “PBM E-score” value was 0.297. In the case of CGATGTTA it was 0.0845; in that of CCTGTGCG, 0.0113. To CAACTTAA belongs 0.0143. To AAGGAGCG belongs -0.0809; to GACGTTAC, 0.0153; to GTCTGGAA, -0.0656.

On to ATGATCGA, for which the “PBM E-score” value is 0.0887. To ACGGATCC belongs -0.184; to CAATGTGC, -0.133. In the case of GATATGCA it was 0.00486; in that of AATTCACC, 0.182. In the case of GATATCCC it was 0.0374; in that of AAGATGGC, -0.0333; in that of GCGACATA, -0.00576. For the sequence AGGGTACC, the “PBM E-score” value is -0.216. To GATCGTAC belongs -0.118; to AAGGTCCG, -0.06.

As for GATTCGCC, the “PBM E-score” value was -0.0424. To CAGTTTCC belongs 0.0749. As for CGCCAGTA, the “PBM E-score” value was -0.0871. In the case of CCCTACAA it was 0.104.

Turning to GGAGGGTA, the “PBM E-score” value was determined as 0.116.

On to TGGCCAAA, for which the “PBM E-score” value worked out at 0.0505. To ACCACCTC belongs -0.101.

Take AGTCGTCA: the “PBM E-score” value is -0.127. For the sequence GGCAAAAA, the “PBM E-score” value was 0.346. In the case of AAAACGCG it was 0.285; in that of AACATTTG, -0.0207. In the case of CTAGCTTC it was -0.0909. Turning to ACATCTCT, the “PBM E-score” value was 0.0158. To TACCAACA belongs 0.0881; to TCTGTGCA, -0.0103; to TGGAGAAA, 0.00653. To GCCTGACA belongs -0.172; to CTATCTAC, -0.166; to CCAATCTA, 0.148. To AATCCCGC belongs 0.209. Turning to AGTAAGTC, the “PBM E-score” value was -0.162. With CTTCCCTC, the “PBM E-score” value is -0.0689. Take ACCTCCCT: the “PBM E-score” value is 0.0158.

As for ACGCCACA, the “PBM E-score” value was 0.00496. Turning to CTGTAAAC, the “PBM E-score” value was determined as 0.00821.

For TAGAGGGA, the “PBM E-score” value is -0.0829. In the case of CGTATACC it was -0.168. With CGAATACG, the “PBM E-score” value was 0.00684. To CAACCTCG belongs -0.0812. To CGGCATCC belongs -0.0858; to AAGCAGGT, 0.0339. To ACCGGAGC belongs 0.0323; to AGTTATAC, 0.0403; to ACCGAGAC, 0.023. On to GAGCCGCC, for which the “PBM E-score” value was -0.0855. In the case of CTGTCCCA it was -0.0918; in that of CTCGTCAA, -0.0254; in that of GTTCGCGA, 0.00152. In the case of ACTAAGAC it was -0.214; in that of AGATTACA, 0.0641. In the case of GCTAAACC it was -0.0644; in that of GAGAGCAA, -0.114.

In the case of AGCTTTAA, the “PBM E-score” value is 0.0779. In the case of GAATCGTA it was -0.0071. In the case of CCTCAGCC it was -0.173; in that of GGTCAACC, -0.0374; in that of AGAGGAGG, -0.166. Turning to ATACGCCA, the “PBM E-score” value was found to be 0.154. To CACGCCCA belongs -0.00122; to CGGCGGGA, 0.00826; to AAGGAATA, 0.0814. In the case of CAACCGTG it was -0.181; in that of CCCACATC, -0.0169. In the case of ACGAGTAC, the “PBM E-score” value is -0.172. To GAGGTGAA belongs 0.0655; to CCAAAGAG, 0.147; to TCGTATAA, 0.0638. To AAATAACC belongs 0.0194.

Take AATTTTGG: the “PBM E-score” value stood at 0.104. To CCCTCCGG belongs -0.195; to GGCCGAAC, -0.0163; to CGTCGAAA, 0.12. In the case of GCTTCAAC it was -0.025; in that of GCATGTCA, 0.054.
